Test results: PubChem BioAssay AID2060909 (Molecular Pharmacology Branch, DTP, NCI, 2025)
The source holds more than one record for some entries. The other results are left out here. The source may hold further records. The records of an entry are repeats in other runs, samples, wells, individuals or studies.

System: 362531-283-R-J2-PDC complex spheroid viability
Test: Anticancer human tumor 362531-283-R-J2-PDC patient-derived colon adenocarcinoma cell line growth inhibition [RAS]
Settings: stronger effect = lower value
Text: RAS pathway inhibitors in Combinations in Complex Spheroids
A high-throughput screen of multi-cell type tumor spheroids was designed to identify active combinations of RAS pathway inhibitors and targeted small molecules. Complex spheroids include a stromal component modeled by human endothelial cells (HUVEC) and fibroblasts modeled by human mesenchymal stem cells (MSCs). The concentration ranges selected for each drug and investigational agent were based upon clinically achievable concentrations if the clinical Cmax of the agent was known.
Compounds. The drugs and investigational agents: abemaciclib (NSC768073), cobimetinib (NSC768068), divarasib (GDC6063, NSC841802), docetaxel (NSC628503), GDC-1971 (RLY-1971, NSC841576), gemcitabine (NSC613327), inavolisib (NSC800729), ipatasertib (NSC767898), KB-0742 (NSC834161), MRTX-1133 (NSC836407), osimertinib (NSC779217), RMC-4630 (NSC839698), RMC-6236 (NSC851965), RMC-6291 (NSC852671), Ro-3306 (NSC812927), sapanisertib (NSC764658), SN-38 (NSC673596), staurosporine (NSC755774), SY5609 (NSC837396), and tovorafenib (DAY101, NSC766906), were obtained from the National Cancer Institute (NCI) Developmental Therapeutics Program Chemical Repository. The FDA-approved anticancer drug set is available from the NCI Developmental Therapeutics Program. […] The stock solutions were prepared in dimethyl sulfoxide (DMSO, Sigma-Aldrich, St. Louis, MO, cat. D2650) at 800-fold the tested concentration and stored at -70 degrees C prior to their use. All drugs and investigational agents were tested over a range starting from a high concentration at or near the clinical Cmax and decreasing in half-log increments. If the clinical Cmax for an agent had not been determined, the highest concentration tested was 10 microM.
Cell Culture. All cells were maintained in an incubator at 37 degrees C and 5% CO2 with 95% humidity. The PDC lines were cultured according to standard operating procedures established by the NCI PDMR. All PDCs were thawed and cultured in Matrigel-coated flasks prepared with a working solution of 1X Ham's F-12 nutrient mix, without supplementation (Invitrogen, Waltham, MA, cat. 11765054), 100 U/mL penicillin-streptomycin (Invitrogen, cat. 15140122), and 2.5% Matrigel (Corning Inc., Corning, NY, cat. 354248) for the first three passages. The 362531-283-R-J2-PDC and 782815-120-R-J1-PDC lines were cultured in 6C/Colon 1B media, which includes advanced DMEM/F-12 (Thermo Fisher Scientific, cat. 12634028), 10 mM HEPES (Thermo Fisher Scientific, cat. 15630080), 1X GlutaMAX supplement (Thermo Fisher Scientific, cat. 35050061), 0.1 mg/mL primocin (InvivoGen, San Diego, CA, cat. ant-pm-2), 10% defined fetal bovine serum, heat inactivated (HyClone Laboratories Inc., Logan, UT, cat. SH30070.03HI), 50% L-WRN conditioned media (ATCC, cat. CRL-3276), 1.25 mM N-Acetyl-L-cysteine (Sigma-Aldrich, cat. A9165), 10 mM nicotinamide (Sigma-Aldrich, cat. N0636), 1X B-27 supplement (Thermo Fisher Scientific, cat. 17504044), 1X N-2 supplement (Thermo Fisher Scientific, cat. 17502048), 50 ng/mL human EGF (Thermo Fisher Scientific, cat. PHG0311), and 10 microM Y-27632 dihydrochloride (Tocris Bioscience, cat. 1254). The K12877-001-R-J1-PDC line was cultured in 6I media, which includes all 6C/Colon 1B media plus 10 ng/mL human FGF-10 (PeproTech, cat. 100-26), 1 ng/mL human FGF-2 (PeproTech, cat. 100-18B), 1 µM prostaglandin E2 (Tocris Bioscience, cat. 2296), […] hydrocortisone (Sigma-Aldrich, cat. H4001), and […] bovine insulin (Sigma-Aldrich, cat. I6634). The K86415-001-R-J1-PDC line was cultured in 6D media, which includes all 6C/Colon 1B media components minus the L-WRN conditioned media. The 485176-168-R4-J1-PDC was cultured in PANC media, which includes all 6C/Colon 1B media plus 100 ng/mL human FGF-10 (PeproTech, cat. 100-26), 500 nM SB-431542 (Selleckchem, cat. S1067), and 10 nM gastrin (Tocris Bioscience, cat. 3006). […]
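Further: spheroids exposed to the agents for 7 days before readout; luminescence viability as percent of DMSO vehicle control wells.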

SMILES: CCN1CCN(Cc2ccc(Nc3ncc(F)c(-c4cc(F)c5nc(C)n(C(C)C)c5c4)n3)nc2)CC1
- viability, T/C (compound alone 0.0316 µM): 59.5, 99.8, 96.3, 95.6%
- viability, T/C (compound alone 1 µM): 45.5, 50.3, 78.6, 76.5%

SMILES: O=C(c1ccc(F)c(F)c1Nc1ccc(I)cc1F)N1CC(O)([C@@H]2CCCCN2)C1
- viability, T/C (compound alone 0.0316 µM): 108, 82.7, 101, 95.2%

SMILES: C=CC(=O)N1CCN(c2nc(OCC3CCCN3C)nc3c(F)c(-c4nc(N)cc(C)c4C(F)(F)F)c(Cl)cc23)C(C)C1 (stereo unspecified)
- viability, T/C (compound alone 1 µM): 103, 101, 104, 100, 102, 99.3, 107, 96.6, 115, 106, 89.8, 99.9%

SMILES: C#Cc1c(F)ccc2cc(O)cc(-c3ncc4c(N5CC6CCC(C5)N6)nc(OCC56CCCN5CC(F)C6)nc4c3F)c12 (stereo unspecified)
- viability, T/C (compound alone 3.16 µM): 74.2, 75.3, 69.6, 65.7, 67.1, 60.5, 89.6, 69.1%

SMILES: CC(Nc1ccc2c(c1)OCCn1cc(N3C(=O)OCC3C(F)F)nc1-2)C(N)=O (stereo unspecified)
- viability, T/C (compound alone 0.316 µM): 90.2, 87.7, 60.6, 69.5%

SMILES: CC1(O)CCCC1n1c(=O)c(C(F)F)cc2cnc(NC3CCN(S(C)(=O)=O)CC3)nc21 (stereo unspecified)
- viability, T/C (compound alone 1 µM): 70.2, 94, 77.9, 65.3%
- viability, T/C (compound alone 10 µM): 54.5, 48.6, 37.4, 72.2%

SMILES: C[C@@H](NC(=O)c1ncnc(N)c1Cl)c1ncc(C(=O)Nc2cc(C(F)(F)F)c(Cl)cn2)s1
- viability, T/C (compound alone 0.316 µM): 81.4, 108, 93.5, 104%

SMILES: CC(C)n1nc(-c2ccc3oc(N)nc3c2)c2c(N)ncnc21
- viability, T/C (compound alone 0.01 µM): 107, 103, 81.6, 84.5%
- viability, T/C (compound alone 0.1 µM): 34.8, 45.5, 58.1, 74.6%
